Data taken from PubChem BioAssay AID1671193 (National Center for Advancing Translational Sciences (NCATS), 2021).
Hit rate of the full screen: of about 150,000 compounds, about 180 (0.12%) were called active. The shares of active, inactive and inconclusive entries below differ from those in the screen. Calls follow the shape of the dose curve; as a rule, active = well fitted cell-killing curve with a large enough effect; inconclusive = small, poorly fitted or top-dose-only effect, or effect the other way; inactive = flat fitted curve, though single readings scatter. A potency beside an inconclusive call is a rough fit, not a confirmed value.

assay: GF-AFC viability counterscreen for inhibitors of alpha-synuclein gene (SNCA) expression; conditions: HEK-293-SNCA-luc viability, GF-AFC fluorescence, 24 h; activity change, negative = cytotoxicity: at 57.1 µM (top of the series) unless noted; also: nearly all actives have a fitted effect of over 30% in size;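 as to activity change, negative = cytotoxicity: 0% = DMSO-treated cells and -100% = medium-only wells without cells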
Outline: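 HEK-293-SNCA-luc cells (1500/well) plated 24 h, then exposed 24 h to a dilution series; GF-AFC added 30 min at 37C, fluorescence 405/540 nm; normalised to medium-only and DMSO wells, Hill fit.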
Potency is read from the fitted curve at half-maximal effect; tags tell the direction and shape of the fitted curve.

SMILES	Potency	activity change, negative = cytotoxicity
OC1CC(c2cc(N3CCN(c4nsc5ccccc45)CC3)ncn2)C1 (stereo unspecified)	inconclusive: 28.2 µM [cytotoxic, partial curve, poor fit]	–
COc1ccccc1-c1cccc(C(=O)N2CCN(C(C)=O)CC2)c1	–	inactive: 10.2% [at 12.5 µM]
CCOC(=O)C1CCN(C(=O)Cc2ccc(N(Cc3ccccc3)C(=O)c3ccco3)cc2)CC1	inconclusive: 20 µM [cytotoxic, partial curve]	–
O=C(c1ccccc1)N1CCC(C(=O)N2CCC(Cc3nc(-c4ccc(F)cc4)no3)CC2)CC1	inconclusive: 39.8 µM [cytotoxic, single point]	–
COc1ccc(C(=O)c2cn(Cc3ccc(F)cc3)c3ccc(C)cc3c2=O)cc1	inconclusive: 6.31 µM [cytotoxic, full curve, poor fit]	–
Cc1ccc(CN2C(=O)C(O)(c3c[nH]c4ccccc34)c3cc(Cl)ccc32)cc1 (stereo unspecified)	inconclusive: 12.6 µM [cytotoxic, partial curve, poor fit]	–
O=S(=O)(c1ccccc1F)N1CC(c2nnc(-c3ccncc3)o2)C2(CCOCC2)C1 (stereo unspecified)	inconclusive: 39.8 µM [cytotoxic, single point]	–
COc1ccc(C2c3c(-c4c(C)cc(C)cc4O)n[nH]c3C(=O)N2Cc2ccco2)cc1 (stereo unspecified)	inconclusive: 28.2 µM [cytotoxic, single point]	–
C1=C(c2cc(-c3cccc4[nH]ccc34)cn3cncc23)CCOC1	–	inactive: -9.67% [at 87.6 µM]
O=C(NCc1cccs1)C1CCCCN1Cc1ccc(-c2ccsc2)cc1 (stereo unspecified)	inconclusive: 39.8 µM [cytotoxic, single point]	–
COc1ccc(-n2c(CC3C(=O)N(C)c4ccc(C)cc43)nc3ccccc3c2=O)cc1 (stereo unspecified)	inconclusive: 28.2 µM [cytotoxic, single point]	–
CCOc1ccc(C(=O)c2cn(Cc3ccccc3OC)c3ccc(F)cc3c2=O)cc1	inconclusive: 2.82 µM [cytotoxic, single point]	–
O=C(c1ccc(N2CC3CC(C2)[C@H]2CCCC(=O)N2C3)nc1)N1CCN(c2ncccn2)CC1 (stereo partly specified)	–	inactive: -4.65%
O=C(CCc1nc2ccccc2s1)N[C@@H]1CCOC[C@H]1OCCO	inconclusive: 0.708 µM [rising, full curve, poor fit]	–
O=C(CSc1nc(-c2ccc(F)cc2)[nH]c1-c1ccccc1)NCC1CCCO1 (stereo unspecified)	inconclusive: 25.1 µM [cytotoxic, single point]	–
COc1ccc(-c2nnc(SCC(=O)NCc3ccc(C)cc3)nc2-c2ccc(OC)c(OC)c2)cc1OC	inconclusive: 22.4 µM [cytotoxic, single point]	–
N#Cc1ccc2nc([C@H]3CCN(Cc4ccccn4)C3)[nH]c2c1	–	inactive: -6.74% [at 87.6 µM]
O=C(NC1CCN(c2ccnc3ccnn23)CC1)c1cc(F)ccc1Br	–	inactive: 1.8% [at 87.6 µM]
Cc1cc(C)c(NC(=O)CSc2nc3nc(C)cc(C)n3n2)c(C)c1	inconclusive: 17.8 µM [rising, partial curve]	–
CC(C)C[C@H](NC(=O)CNC(=O)OCc1ccccc1)C(=O)N[C@@H](Cc1ccccc1)C(=O)CCl	active: 23.8 µM	–
CCn1cc2nc(SCC(=O)Nc3ccc(C)cc3C)n(Cc3ccc(C)cc3)c(=O)c2n1	inconclusive: 28.2 µM [cytotoxic, single point]	–

SMILES	Potency	activity change, negative = cytotoxicity
COc1ccccc1Nc1ccnc(N2CCC(NC(=O)c3ccccc3OC)CC2)n1	–	inactive: -16.3%
COc1ccc(C(=O)NC2CCN(c3cnn(CC4CC4)c(=O)c3)CC2)c(OC)c1	inconclusive: 5.62 µM [cytotoxic, partial curve, poor fit]	–
CCCc1ccc(C2Sc3ccccc3NC3=C2C(=O)c2ccccc23)cc1 (stereo unspecified)	inconclusive: 28.2 µM [cytotoxic, partial curve, poor fit]	–
CCOC(=O)CNS(=O)(=O)c1cc(-c2nnc(Nc3cccc(O)c3)c3ccccc23)ccc1C	inconclusive: 39.8 µM [cytotoxic, single point]	–
O=C(O)c1ccc([S+](=O)([O-])N2CC(COc3ccccc3)C3(CN(c4ccccc4)C3)C2)cc1 (stereo unspecified)	–	inactive: 7.95%
COc1ccc(OCC2(C)COc3ccc(C(=O)NCc4ccc(F)cc4)cc3N2)cc1 (stereo unspecified)	–	inactive: -0.0246% [at 87.6 µM]
COCC(=O)N1CCC(c2nn(-c3ccc(OC)cc3)c(=O)[nH]2)CC1	–	inactive: -12.5%
COC(=O)[C@@H]1Cc2c([nH]c3ccccc23)[C@H]2C[C@H](NCCN3CCOCC3)C[C@@H](c3ccc(F)cc3)N21	inconclusive: 39.8 µM [cytotoxic, single point]	–
COC1CCC12CCN(Cc1cccc(C#N)c1)CC2 (stereo unspecified)	–	inconclusive: -26%
O=C(c1nc2sccn2c1-c1ccccc1)N1CCOCC1	–	inactive: -10.6% [at 87.6 µM]
CC1CCCCN1C(=O)Cn1c(SCC(=O)N(C)c2ccccc2)nc2ccccc21 (stereo unspecified)	inconclusive: 15.8 µM [cytotoxic, partial curve, poor fit]	–
Cc1ccc2oc([C@H]3CCN(Cc4c[nH]c5ccccc45)C3)nc2c1	inconclusive: 28.2 µM [cytotoxic, single point]	–
O=C(NCCc1csc2nc(-c3ccc(F)cc3)nn12)c1cccc(C(F)(F)F)c1	inconclusive: 15.8 µM [cytotoxic, partial curve, poor fit]	–
COc1cccc(CCC2CCCN(C(=O)c3ccsc3)C2)c1 (stereo unspecified)	–	inactive: -2.45%
Cc1nn(-c2ccc(C(C)C)cc2)c(C)c1[C@@H]1C=C[C@@H](NCc2cccc(Cl)c2)C1	inconclusive: 31.6 µM [cytotoxic, partial curve, poor fit]	–
COc1cc(CC2COC(c3ccc(OC4OC(CO)C(O)C(O)C4O)c(OC)c3)C2CO)ccc1O (stereo unspecified)	inconclusive: 3.67 µM [rising, single point]	–
Cc1ccc(S(=O)(=O)N2CCN(C3CCN(Cc4ccccn4)C3=O)CC2)c(C)c1 (stereo unspecified)	–	inactive: 0.642%
CCN(CC)c1cc(CCC(=O)NCc2cc(OC)ccc2OC)ccn1	–	inactive: 0.743%
CCCCN(C)C(=O)C1CCC(CNS(=O)(=O)c2ccc(Cl)cc2)CC1 (stereo unspecified)	inconclusive: 3.55 µM [cytotoxic, full curve, poor fit]	–
COc1ccc(C(=O)NC2CCN(c3cnn(C)c(=O)c3)CC2)cc1OC	inconclusive: 6.31 µM [cytotoxic, single point]	–
